The IC50 comes from the fitted curve, where viability falls to half of the control; fits outside the tested doses are given as limits. The AUC spans the tested range (256-fold, ending at the top dose) of the same fit: 1 means no effect, lower means more sensitive. Any top dose called inferred is not printed in the source and was worked back from the curve model.
Legend:
RO-3306 = compound: O=C1NC(=NCc2cccs2)S/C1=C\c1ccc2ncccc2c1 [RO-3306]; assay: Viability of human cancer cell lines after 72 h of drug (GDSC screen); details: top dose 5 µM; top dose inferred
Method: (§1)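 Human cancer cell lines in 384-well plates, medium with 10% serum, drug for 72 h over a 256-fold dose range (nine 2-fold or five 4-fold steps up to the top dose). Adherent lines were fixed and stained with the nucleic acid dye Syto60, suspension lines read with resazurin; signal relative to control wells, capped at 0 and 100%. One two-parameter sigmoid per drug and line, fitted in a mixed model over all curves with the slope shared within a line.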

GSK2126458 = compound: COc1ncc(-c2ccc3nccc(-c4ccnnc4)c3c2)cc1NS(=O)(=O)c1ccc(F)cc1F [GSK2126458]; assay: as above; details: top dose inferred
Method: as §1

Cell Line | AUC (RO-3306) | IC50 (RO-3306) [µM] | AUC (GSK2126458) | IC50 (GSK2126458) [µM]
8-MG-BA (glioma, adherent) | 0.851 | 3.47 | – | –
22RV1 (prostate, adherent) | 0.969 | > 5 | – | –
42-MG-BA (glioma, adherent) | 0.702 | 1.21 | – | –
201T (lung adenocarcinoma, adherent) | 0.962 | > 5 | – | –
451Lu (melanoma, adherent) | 0.968 | > 5 | – | –
639-V (bladder, adherent) | 0.891 | 4.31 | – | –
647-V (bladder, adherent) | 0.98 | > 5 | – | –
697 (lymphoblastic leukaemia, suspension) | 0.96 | > 5 | – | –
786-0 (kidney, adherent) | 0.958 | > 5 | – | –
5637 (bladder, adherent) | 0.85 | 3.27 | – | –
8305C (thyroid, adherent) | 0.956 | > 5 | – | –
8505C (thyroid, adherent) | 0.946 | > 5 | – | –
23132-87 (stomach, adherent) | 0.986 | > 5 | – | –
A3-KAW (B-cell lymphoma, suspension) | 0.992 | > 5 | – | –
A4-Fuk (B-cell lymphoma, suspension) | 0.945 | > 5 | – | –
A101D (melanoma, adherent) | 0.939 | > 5 | – | –
A172 (glioma, adherent) | 0.847 | 3.48 | – | –
A253 (head and neck, adherent) | 0.974 | > 5 | – | –
A375 (melanoma, adherent) | 0.939 | > 5 | – | –
A388 (skin, adherent) | 0.925 | > 5 | – | –
A427 (non-small cell lung carcinoma, adherent) | 0.986 | > 5 | – | –
A431 (skin, adherent) | 0.929 | > 5 | – | –
A498 (kidney, adherent) | 0.938 | > 5 | – | –
A549 (lung adenocarcinoma, adherent) | 0.911 | > 5 | – | –
A673 (rhabdomyosarcoma, adherent) | 0.989 | > 5 | – | –
A704 (kidney, adherent) | 0.928 | > 5 | – | –

Cell Line | AUC (RO-3306) | IC50 (RO-3306) [µM] | AUC (GSK2126458) | IC50 (GSK2126458) [µM]
A2780 (ovary, semi-adherent) | 0.984 | > 5 | – | –
AGS (stomach, adherent) | 0.786 | 1.93 | – | –
ALL-PO (lymphoblastic leukaemia, suspension) | 0.8 | 2.58 | – | –
ALL-SIL (T-cell leukaemia, suspension) | 0.989 | > 5 | – | –
AM-38 (glioma, semi-adherent) | 0.988 | > 5 | – | –
AMO-1 (haematopoietic neoplasm, suspension) | 0.988 | > 5 | – | –
ARH-77 (myeloma, suspension) | 0.98 | > 5 | – | –
ASH-3 (thyroid, adherent) | 0.901 | > 5 | – | –
ATN-1 (T-cell lymphoblastic leukaemia, suspension) | 0.949 | > 5 | – | –
AU565 (breast, adherent) | 0.778 | 2.26 | – | –
AsPC-1 (pancreas, adherent) | 0.888 | > 5 | – | –
BALL-1 (B-cell leukaemia, suspension) | 0.997 | > 5 | – | –
BB30-HNC (head and neck, adherent) | 0.81 | 2.56 | – | –
BB49-HNC (head and neck, adherent) | 0.975 | > 5 | – | –
BC-1 (B-cell lymphoma, suspension) | 0.99 | > 5 | – | –
BCPAP (thyroid, adherent) | 0.979 | > 5 | – | –
BE2-M17 (neuroblastoma, adherent) | 0.97 | > 5 | – | –
BE-13 (lymphoblastic leukaemia, suspension) | 0.978 | > 5 | – | –
BFTC-905 (bladder, adherent) | 0.924 | > 5 | – | –
BHT-101 (thyroid, adherent) | 0.94 | > 5 | – | –
BHY (head and neck, adherent) | 0.951 | > 5 | – | –
BICR10 (head and neck, adherent) | 0.953 | > 5 | – | –
BICR22 (head and neck, adherent) | 0.846 | 4.52 | – | –
BICR78 (head and neck, adherent) | 0.887 | > 5 | – | –
BL-41 (Burkitt lymphoma, suspension) | 0.991 | > 5 | – | –
BPH-1 (prostate, adherent) | 0.822 | 3.32 | – | –

Cell Line | AUC (RO-3306) | IC50 (RO-3306) [µM] | AUC (GSK2126458) | IC50 (GSK2126458) [µM]
BT-20 (breast, adherent) | 0.969 | > 5 | – | –
BT-474 (breast, adherent) | 0.986 | > 5 | – | –
BT-483 (breast, adherent) | 0.957 | > 5 | – | –
BT-549 (breast, adherent) | 0.977 | > 5 | – | –
BV-173 (chronic myeloid leukaemia, suspension) | 0.952 | > 5 | – | –
Becker (glioma, adherent) | 0.92 | > 5 | – | –
BxPC-3 (pancreas, adherent) | 0.981 | > 5 | – | –
C2BBe1 (large intestine, adherent) | 0.985 | > 5 | – | –
C3A (liver, adherent) | 0.986 | > 5 | – | –
C32 (melanoma, adherent) | 0.98 | > 5 | – | –
C-4-I (cervix, adherent) | 0.924 | > 5 | – | –
C-33-A (cervix, adherent) | 0.966 | > 5 | – | –
CA46 (Burkitt lymphoma, suspension) | 0.985 | > 5 | – | –
WM-115 (melanoma, adherent, top dose 0.128 µM) | – | – | 0.474 | 0.00668
WSU-DLCL2 (B-cell lymphoma, suspension, top dose 0.128 µM) | – | – | 0.751 | 0.0359
WSU-NHL (lymphoid neoplasm, suspension, top dose 0.128 µM) | – | – | 0.796 | 0.0517
YAPC (pancreas, adherent, top dose 0.128 µM) | – | – | 0.888 | > 0.128
YH-13 (glioma, adherent, top dose 0.128 µM) | – | – | 0.777 | 0.0544
YKG-1 (glioma, adherent, top dose 0.128 µM) | – | – | 0.561 | 0.0117
YMB-1-E (breast, adherent, top dose 0.128 µM) | – | – | 0.607 | 0.0175
YT (lymphoid neoplasm, suspension, top dose 0.128 µM) | – | – | 0.171 | 0.001
huH-1 (liver, adherent, top dose 0.128 µM) | – | – | 0.983 | > 0.128
no-10 (glioma, adherent, top dose 0.128 µM) | – | – | 0.814 | 0.0907
no-11 (glioma, adherent, top dose 0.128 µM) | – | – | 0.766 | 0.0591

Source: the supplement of paper PMC4967469
